Assay results as given in article PMC3213158.
No constants are given. Whether binding was seen depends on the method and setting. In cells and extracts the contact can be indirect. Some results given as binding are weak or reduced against the parent protein; the word gives no strength. For part of these data: Where a sequence is shown, tags or fusion partners need not be part of it. One block for each binder: values may come before it.

Key:
[1] = target: T1, HA-FVE (Arabidopsis thaliana), O22607; test: co-IP; total protein extracts of transgenic seedlings immunoprecipitated with anti-HA agarose; western blot with anti-GFP or anti-myc; conditions: remark: other sources report otherwise
T1 chain: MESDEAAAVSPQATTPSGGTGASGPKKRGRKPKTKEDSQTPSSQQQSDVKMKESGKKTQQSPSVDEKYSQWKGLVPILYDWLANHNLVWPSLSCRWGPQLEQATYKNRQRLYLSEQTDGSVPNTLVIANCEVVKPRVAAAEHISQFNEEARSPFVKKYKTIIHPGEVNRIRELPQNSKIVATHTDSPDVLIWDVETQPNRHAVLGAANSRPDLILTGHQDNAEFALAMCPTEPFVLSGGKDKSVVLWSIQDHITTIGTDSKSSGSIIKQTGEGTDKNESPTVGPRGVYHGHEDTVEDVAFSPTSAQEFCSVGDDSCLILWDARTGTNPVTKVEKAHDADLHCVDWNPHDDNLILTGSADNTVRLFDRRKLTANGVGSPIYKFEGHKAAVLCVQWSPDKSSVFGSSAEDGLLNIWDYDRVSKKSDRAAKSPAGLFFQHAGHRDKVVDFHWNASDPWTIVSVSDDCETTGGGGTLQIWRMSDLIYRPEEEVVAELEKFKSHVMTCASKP

[2] = target: T2, HDA6-cEYFP (Arabidopsis thaliana) (UniProt Q9FML2); test: split reporter; BiFC with nEYFP and cEYFP fusions co-expressed in onion epidermal cells by biolistic bombardment; EYFP fluorescence imaged by confocal microscopy 24-48 hrs after bombardment
T2 sequence: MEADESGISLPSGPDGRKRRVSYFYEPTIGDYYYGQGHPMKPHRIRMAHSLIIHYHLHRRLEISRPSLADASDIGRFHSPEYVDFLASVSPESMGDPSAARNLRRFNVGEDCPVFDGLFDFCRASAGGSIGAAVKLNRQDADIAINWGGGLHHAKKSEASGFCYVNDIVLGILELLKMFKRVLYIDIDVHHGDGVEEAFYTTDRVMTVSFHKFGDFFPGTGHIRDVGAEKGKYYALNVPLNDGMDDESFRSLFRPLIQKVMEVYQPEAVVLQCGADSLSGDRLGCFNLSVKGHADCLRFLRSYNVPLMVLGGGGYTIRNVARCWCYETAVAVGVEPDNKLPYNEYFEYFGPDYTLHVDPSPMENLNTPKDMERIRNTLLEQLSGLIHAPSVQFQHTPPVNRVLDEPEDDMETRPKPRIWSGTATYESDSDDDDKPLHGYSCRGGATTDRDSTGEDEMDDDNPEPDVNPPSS

[3] = target: T3, HDA6-FLAG (Arabidopsis thaliana) (UniProt Q9FML2); test: co-IP; total protein extracts of F1 seedlings (HDA6-FLAG crossed to MSI5-YFP-HA or HA-FVE) immunoprecipitated with anti-FLAG M2 affinity gel; western blot with anti-HA
T3 sequence: T2 sequence

[4] = target: T4, MSI5-YFP-HA (Arabidopsis thaliana) (UniProt Q9SU78); test: co-IP; total protein extracts of transgenic seedlings immunoprecipitated with anti-HA agarose; western blot with anti-GFP or anti-myc
T4 sequence: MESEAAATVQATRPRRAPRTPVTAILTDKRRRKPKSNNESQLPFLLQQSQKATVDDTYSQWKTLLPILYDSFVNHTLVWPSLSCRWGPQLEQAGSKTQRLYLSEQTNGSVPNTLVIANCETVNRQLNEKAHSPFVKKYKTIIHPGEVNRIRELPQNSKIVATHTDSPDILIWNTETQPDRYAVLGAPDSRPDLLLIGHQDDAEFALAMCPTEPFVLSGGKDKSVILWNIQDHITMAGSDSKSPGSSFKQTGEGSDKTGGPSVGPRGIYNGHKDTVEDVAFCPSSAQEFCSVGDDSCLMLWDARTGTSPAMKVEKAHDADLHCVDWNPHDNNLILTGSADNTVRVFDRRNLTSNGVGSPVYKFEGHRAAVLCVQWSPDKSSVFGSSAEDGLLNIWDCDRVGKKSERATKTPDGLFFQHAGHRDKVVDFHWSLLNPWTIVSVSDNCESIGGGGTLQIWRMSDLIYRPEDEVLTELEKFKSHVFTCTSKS

binding [1]: no binding
B1: GFP-CLF, P93831 1-902 (protein)
chain: MASEASPSSSATRSEPPKDSPAEERGPASKEVSEVIESLKKKLAADRCISIKKRIDENKKNLFAITQSFMRSSMERGGSCKDGSDLLVKRQRDSPGMKSGIDESNNNRYVEDGPASSGMVQGSSVPVKISLRPIKMPDIKRLSPYTTWVFLDRNQRMTEDQSVVGRRRIYYDQTGGEALICSDSEEEAIDDEEEKRDFLEPEDYIIRMTLEQLGLSDSVLAELASFLSRSTSEIKARHGVLMKEKEVSESGDNQAESSLLNKDMEGALDSFDNLFCRRCLVFDCRLHGCSQDLIFPAEKPAPWCPPVDENLTCGANCYKTLLKSGRFPGYGTIEGKTGTSSDGAGTKTTPTKFSSKLNGRKPKTFPSESASSNEKCALETSDSENGLQQDTNSDKVSSSPKVKGSGRRVGRKRNKNRVAERVPRKTQKRQKKTEASDSDSIASGSCSPSDAKHKDNEDATSSSQKHVKSGNSGKSRKNGTPAEVSNNSVKDDVPVCQSNEVASELDAPGSDESLRKEEFMGETVSRGRLATNKLWRPLEKSLFDKGVEIFGMNSCLIARNLLSGFKSCWEVFQYMTCSENKASFFGGDGLNPDGSSKFDINGNMVNNQVRRRSRFLRRRGKVRRLKYTWKSAAYHSIRKRITEKKDQPCRQFNPCNCKIACGKECPCLLNGTCCEKYCGCPKSCKNRFRGCHCAKSQCRSRQCPCFAADRECDPDVCRNCWVIGGDGSLGVPSQRGDNYECRNMKLLLKQQQRVLLGISDVSGWGAFLKNSVSKHEYLGEYTGELISHKEADKRGKIYDRENCSFLFNLNDQFVLDAYRKGDKLKFANHSPEPNCYAKVIMVAGDHRVGIFAKERILAGEELFYDYRYEPDRAPAWAKKPEAPGSKKDENVTPSVGRPKKLA

binding [2]: binds
B2: nEYFP-MSI5 (protein, UniProt Q9SU78 1-487)
chain: T4 sequence

binding [3]: binds
B3: MSI5-YFP-HA (protein, UniProt Q9SU78 1-487)
chain: T4 sequence

binding [2]: binds
B4: nEYFP-FVE (protein, UniProt O22607 1-507)
chain: T1 chain

binding [3]: binds weakly
B5: HA-FVE (protein, UniProt O22607 1-507)
chain: T1 chain

binding [4]: binds
B6: FLD-myc (protein, UniProt Q9CAE3 1-789)
chain: MVSFSAPKKRRRGRSQRSMSSLNSLPVPNVGLLPGNSNFVSSSASSSGRFNVEVVNGSNQTVKSYPGIGDEIITINKEATTEALLALTAGFPADSLTEEEIEFGVVPIVGGIEQVNYILIRNHIISKWRENISSWVTKEMFLNSIPKHCSSLLDSAYNYLVTHGYINFGIAQAIKDKFPAQSSKSSVIIVGAGLSGLAAARQLMRFGFKVTVLEGRKRPGGRVYTKKMEANRVGAAADLGGSVLTGTLGNPLGIIARQLGSSLYKVRDKCPLYRVDGKPVDPDVDIKVEVAFNQLLDKASKLRQLMGDVSMDVSLGAALETFRQVSGNDVATEEMGLFNWHLANLEYANAGLVSKLSLAFWDQDDPYDMGGDHCFLPGGNGRLVQALAENVPILYEKTVQTIRYGSNGVKVTAGNQVYEGDMVLCTVPLGVLKNGSIKFVPELPQRKLDCIKRLGFGLLNKVAMLFPYVFWSTDLDTFGHLTEDPNYRGEFFLFYSYAPVAGGALLIALVAGEAAHKFETMPPTDAVTRVLHILRGIYEPQGINVPDPLQTVCTRWGGDPFSLGSYSNVAVGASGDDYDILAESVGDGRLFFAGEATTRRYPATMHGAFVTGLREAANMAQSAKARGIRKRIDRNPSRNAHSCAILLADLFRDPDLEFGSFCIIFSRRNPDPKSPAILRVTLSEPRKRNEDPKADQHSNKILFQQLQSHFNQQQQIQVYTLLTRQQALDLREVRGGDEKRLYYLCETLGVKLVGRKGLGVGADSVIASIKAERTGRKLPSSSTSGTKSG
